Measured values as given in publication PMC4336329 (PLoS ONE, 2015).
In all, about 310,000 compounds went through this assay and about 14,000 (4.5%) showed an effect of 50% or more. The effect is printed as a negative number. The list shows a part of the results.

molecular target: human ether-à-go-go-related gene (hERG) potassium channel (human, UniProt Q12809); assay: primary screen, population patch clamp on CHO cells stably expressing hERG
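Further: peak tail current of the secondary pulse compared with the same well before compound.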

Sequence of human ether-à-go-go-related gene (hERG) potassium channel (Q12809 whole entry, looked up): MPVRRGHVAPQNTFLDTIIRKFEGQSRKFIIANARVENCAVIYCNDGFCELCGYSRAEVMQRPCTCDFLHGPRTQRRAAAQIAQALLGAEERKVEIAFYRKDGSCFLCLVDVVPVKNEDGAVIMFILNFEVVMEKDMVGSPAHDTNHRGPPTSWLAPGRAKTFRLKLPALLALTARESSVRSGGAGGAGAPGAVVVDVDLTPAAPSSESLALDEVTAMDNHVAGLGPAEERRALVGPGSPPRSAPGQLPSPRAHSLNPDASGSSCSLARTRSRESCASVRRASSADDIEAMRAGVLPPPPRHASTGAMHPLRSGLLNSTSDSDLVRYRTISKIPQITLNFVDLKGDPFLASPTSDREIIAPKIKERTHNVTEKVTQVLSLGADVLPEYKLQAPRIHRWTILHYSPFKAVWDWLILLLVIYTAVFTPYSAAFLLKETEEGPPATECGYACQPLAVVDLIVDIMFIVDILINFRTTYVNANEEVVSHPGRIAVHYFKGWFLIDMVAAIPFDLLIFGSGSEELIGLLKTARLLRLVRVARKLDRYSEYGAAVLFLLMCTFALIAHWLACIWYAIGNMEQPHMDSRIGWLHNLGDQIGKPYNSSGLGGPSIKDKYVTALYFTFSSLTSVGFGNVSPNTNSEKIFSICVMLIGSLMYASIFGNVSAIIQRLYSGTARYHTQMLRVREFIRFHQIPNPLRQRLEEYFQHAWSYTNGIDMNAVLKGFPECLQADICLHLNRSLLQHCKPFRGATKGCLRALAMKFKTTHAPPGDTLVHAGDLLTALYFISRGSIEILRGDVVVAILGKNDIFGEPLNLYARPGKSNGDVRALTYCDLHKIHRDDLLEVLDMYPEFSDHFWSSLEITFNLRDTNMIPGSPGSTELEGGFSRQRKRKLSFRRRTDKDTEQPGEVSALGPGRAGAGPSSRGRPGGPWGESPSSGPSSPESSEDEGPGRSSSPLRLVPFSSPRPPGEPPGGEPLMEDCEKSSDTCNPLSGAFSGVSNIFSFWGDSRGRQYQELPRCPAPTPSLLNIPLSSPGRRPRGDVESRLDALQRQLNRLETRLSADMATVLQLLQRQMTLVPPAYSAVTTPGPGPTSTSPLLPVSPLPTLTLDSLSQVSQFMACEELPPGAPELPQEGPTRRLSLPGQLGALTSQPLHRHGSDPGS

Compound | hERG current change (%, negative = inhibition) at 10uM
COc1ccccc1Nc1nnc(SCC(=O)N2CCCC2=O)s1 | -11.4%
COc1ccc(CCNC(=O)CSc2ccc(Br)cc2)cc1OC | 23%
NC(=O)NNc1ncc(C(F)(F)F)cc1Cl | 2.95%
O=C(N/N=C/c1ccc(O)cc1)c1nc(-c2ccccc2)n(-c2ccccc2)n1 | -3.91%
CCN(C(=O)COC(=O)c1cc([N+](=O)[O-])ccc1N1CCOCC1)c1ccccc1 | -34.3%
Cc1ccc(C(=O)OCn2nnc3ccccc3c2=O)cc1[N+](=O)[O-] | 1.72%
COc1cc(C(=O)Nc2ccc(S(=O)(=O)N3CCc4ccccc43)cc2)cc(OC)c1OC | -4.14%
Cc1ccc(Oc2nccc(-c3ccc(Cl)cc3)n2)cc1 | 9.09%
O=C(c1ccc(Cl)c(S(=O)(=O)Nc2ccccc2C(=O)N2CCc3ccccc3C2)c1)N1CCc2ccccc2C1 | 2.64%
c1ccc2ncc(-n3cnnn3)cc2c1 | 7.18%
CC(C)Cc1nnc(NC(=O)c2cc(-c3ccccc3)nc3ccccc23)s1 | -12.3%
CCOC(=O)CCC(NC(=O)c1ccc(NCN2C(=O)c3ccccc3C2=O)cc1)C(=O)OCC (centres unmarked) | 4.89%
O=C1OCCC1Sc1nc2cc(Cl)ccc2s1 (centres unmarked) | -9.14%
COc1ccc(NC(=O)Cn2c(=O)sc3ccccc32)cc1 | -3.44%
COC(=O)COc1ccc(=O)n(-c2ccccc2)n1 | 3.87%
CN(C)C(=O)Oc1ccc2c(c1)O/C(=C\c1cccc([N+](=O)[O-])c1)C2=O | 18.6%
CCOC(=O)C1(Cc2cccc(OC)c2)CCN(CC(O)CO)CC1 (centres unmarked) | -4.39%
CCC(=O)Oc1ccc2c(c1)OC1(OC(C)=O)OC(C)CC1=C2C (centres unmarked) | -5.19%
Cc1cc(C)c(CSc2ncnc3nc[nH]c23)c(C)c1 | 11.3%
O=C1[N-]C(=O)C(c2ccccc2)(c2ccccc2)N1.[Na+] | 8.3%
O=C(c1cccs1)c1coc2ccc(O)c(CN3CCOCC3)c12 | -69.1%
CO/N=C/c1ccc(Oc2ccc([N+](=O)[O-])cc2[N+](=O)[O-])c(OC)c1 | 4.22%

Compound | hERG current change (%, negative = inhibition) at 10uM
O=C(CCNS(=O)(=O)c1ccccc1)N1CCOCC1 | 20.4%
CCOc1ccc(S(=O)(=O)N2CCC(C(=O)OC(C)C(=O)N(C)C3CCCCC3)CC2)cc1 (centres unmarked) | -21.6%
Cc1ccc(C(=O)NC(=S)N2CCCC2)cc1 | 24.9%
CCCCn1nnc(NC(=O)c2ccc([N+](=O)[O-])cc2Cl)n1 | -31.1%
COc1cc(/C=C2/C(=O)N(c3cccc(Br)c3)N=C2C)cc(OC)c1O | 32.4%
COc1cccc(NC(=O)COc2nc3ccccc3nc2C)c1 | 10.7%
CC1CCCN(CCOc2cccc(Oc3ccccc3)c2)C1.O=C(O)C(=O)O (centres unmarked) | -64.7%
CCc1c(O)nc(SCC(=O)Nc2nc3ccccc3s2)n(-c2ccc(C)cc2)c1=O | -17.8%
CS(=O)(=O)N1CCCC(C(=O)Nc2ccccc2)C1 (centres unmarked) | 10.4%
O=C(Oc1ccc2c(c1)OCC2=O)c1ccc(Cl)cc1 | -2.29%
N#Cc1nc(-c2ccccc2F)oc1NCCc1ccccn1 | -3.63%
COC(=O)CN=Cc1c(C)[nH]n(-c2ccccc2)c1=O | -1.99%
O=S(=O)(c1ccc(F)cc1)N1CCN(C(=S)NCc2ccccc2)CC1 | 13.8%
Cc1cc(NC(=O)c2ccccc2F)n(C(C)(C)C)n1 | 15.4%
C=C(C)Cn1c(SCC(=O)O)nnc1-c1ccc(OC)cc1 | -16.3%
O=C(CCN1C(=O)c2cccc3cccc(c23)C1=O)N1CCOCC1 | 19.9%
Cc1cccc(C(=O)c2ccccc2C(=O)O)c1O | 20.4%
Cc1cccc(N=C2NC(=O)C(CO)(CO)S2)c1 | 17.2%
Cc1ccc(C)c(-c2csc(NC(=O)c3cnccn3)n2)c1 | -11.9%
COCCNC(=O)CN(C(=O)Cn1nnc2ccccc21)c1ccc(C)c(F)c1 | 2.88%
CC1CCC(NC(=O)CCNS(=O)(=O)c2ccccc2)CC1 (centres unmarked) | 10.6%
O=C(CCN1C(=O)[C@@H]2Cc3ccccc3CN2C1=O)Nc1cccc(F)c1 | -13.8%
